# Laboratory results taken from the supplement of paper PMC10338343.
# ± gives the standard deviation. Whole data set: some 6,600 sequences, median “pre-steady-state target cleavage rate” near 0.07, cut for the highest 2% near 0.72. The list shows a part of the results, in another mix than the full data.
# Test system: MIWI (PIWIL1) piRISC loaded with Kctd7 piRNA (30 nt)
# Test: pre-steady-state target cleavage rate (min^-1); MIWI and MILI are mouse PIWI proteins and EfPiwi is from a freshwater sponge; tags in brackets are library labels; higher = faster piRNA-guided slicing of the target
# Details: guide: Kctd7 piRNA 5'p-UGUUAAUCUCUCAGAGAAGGUGACAGUGAU; auxiliary factor: 500 nM mouse GTSF1
# Method: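 Cleave-'n-Seq: a library of target RNAs (target site embedded in constant flanks, ACAGCATTCCGCGTTAGTGATATCCG... 5' flank; DNA-blocked outside the site) at 0.1 nM was incubated with 1 nM active mouse MILI or MIWI piRISC (synthetic 5'-monophosphorylated piRNA guide) with or without 500 nM mouse GTSF1 at 33 °C for 1 min to 16 h. Uncleaved targets were sequenced and normalised to non-target controls, and the pooled three trials were fitted to a burst-and-steady-state model to give the pre-steady-state cleavage rate (min^-1; k3 is constrained to at most 1e-4). Sequence is the target site only; target names encode pairing extent (gX:gY) and contiguous / 1-mismatch / 2-mismatch / bulge geometry. Fits with R² ≤ 0 are excluded.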
row,Sequence,pre-steady-state target cleavage rate
1,UAGUGUGUCACCCUCUCUGAGAGAUUAACA,0.6 ± 0.04
2,UAGUGUCUCACCUUCUCUGAGAGAUAAACA,0.211 ± 0.025
3,UUCACUGUCACCUUCUCUGUCUGAUUUUGA,0.00953 ± 0.0049
4,UAGUGAGUGACCUUGUCUGAGAGAUUAACA,0.0927 ± 0.013
5,AUCACUGUCACCAUCUCUGAGAGAUUAUCA,0.296 ± 0.033
6,UAGUGAGUCACCAUCUCUGAGACAUUAACA,0.146 ± 0.017
7,UAGUGUGUCACCAUCUGUGAGAGAUUAACA,0.344 ± 0.021
8,UAGUGACAGACCGUCUCUGAGAGAUUAACA,0.0219 ± 0.0047
9,UAGACUUGUCACCUUCUCUGAGAGAUUAACA,0.611 ± 0.08
10,AUCACUGUCACCAACUCUGAGAGAUUAACA,0.666 ± 0.054
11,UAGUCUGUCACCUUCUCUGAGAGAUAUAGA,0.0222 ± 0.0086
12,UUCACUGUCACCUUCUCUCUGAGAUUAUGA,0.00778 ± 0.0051
13,UACACUGUCACCUUCUCUGAGCGAUUAACA,0.101 ± 0.0096
14,UAGUCUGUCACCUUCUCUGAGACAUUAACA,0.174 ± 0.019
15,UUCACACACACCUUCUCUGAGAGAUUAACA,0.493 ± 0.027
16,UACUCUGUCACCUUCUCUGAGAGAUAUUGA,0.0791 ± 0.018
17,UAGUGACAGUGGAACUCUGACAGAUUUACA,< 0.0001
18,UAGUGACACACCUUCUCUCAGAGUUUAACA,0.0159 ± 0.0037
19,UAGUGAGUCACCUACUCUGAGACAUUAACA,0.0677 ± 0.01
20,AUCACUGUCACCUUCUCUGUGAGAUAAACA,0.172 ± 0.017
21,UAGUGACAGUCCUUCUCUGAGAGACUUAACA,0.00857 ± 0.0034
22,UACACUGACACCUUCUCAGAGAGAUUAACA,0.222 ± 0.022
23,UAGUGAGUCAGCUACUCUGAGAGAUUAACA,0.373 ± 0.027
24,AGUCACUGUCACCUUCUCUGAGAGAUUAACA,0.833 ± 0.057

row,Sequence,pre-steady-state target cleavage rate
1,UAGACUGUCACCUACUCUGAGAGAAUAACA,0.189 ± 0.037
2,UAGUCUGUCACCUUCUCUCAGAGAUAAACA,0.0533 ± 0.0059
3,UAGUGUGUCACCUUCUCUGAGUGAUUUACA,0.0154 ± 0.0075
4,UAGUCUGACACCUUCUCUGAGAGAUUAACA,0.609 ± 0.033
5,UAGAGUGUCACCUUCUGUGAGAGAUUAACA,0.578 ± 0.028
6,UAGUGUGUCACCUUCUCUGAGAGAUGAACA,0.0565 ± 0.012
7,UUCACUGUCACCAACUCUGAGAGAUUAACA,0.616 ± 0.053
8,UUCACUGUCACCUUGUCUGAGAGAUUUACA,0.671 ± 0.12
9,UUGACUGUCACCUUCACUGAGAGAUUAACA,0.429 ± 0.029
10,UAGUGUGUCAGCUUCUCUGAGAGAUAAACA,0.223 ± 0.02
11,AUCACUGUCACCUUCUCUGAGGGAUUAACA,0.75 ± 0.041
12,UAGACUGACACCUUCUCUGAGAGAUUUACA,0.281 ± 0.044
13,UUCUACUGUCACCUUCUCUGAGAGAUUAACA,0.677 ± 0.038
14,UAGUCUGUGUGCUUCUCUGAGAGAUUAAGA,0.00541 ± 0.0021
15,UUCACUGUCACCUUCUCUGAGUGAUUAAGA,0.0149 ± 0.0054
16,UAGUGACAGAGCUUCUCUGAGAGAUUAAGA,0.00666 ± 0.0032
17,UAGUGAGUCACCUUCUCUGAGGGAUUAACA,0.598 ± 0.032
18,UACACUGUCACCUUCUCUGAGACUUUAAGA,0.00614 ± 0.004
19,UAGACUGUCACCUUCACUGAGAGAUUAACA,0.517 ± 0.042
20,UAGUGACUCACCUAUCUCUGAGAGAUUAACA,0.158 ± 0.017
21,UAGUGACUCUCCUUGUCUGAGAGAUUAACA,0.0206 ± 0.0036
22,UACACUGACACCUUCUCUGAGAGAUAUUGA,0.0445 ± 0.017
23,UAGUCAUGUCACCUUCUCUGAGAGAUUAACA,0.571 ± 0.028
24,AUCACUGUCACCUUCUCAGAGAGAUUUUGA,0.242 ± 0.059

row,Sequence,pre-steady-state target cleavage rate
1,UAGACUGUCACUUUCUCUGAGAGAUUAACA,0.8 ± 0.043
2,UAGUGAGUCACCUUCUCUGAGAGGUUAACA,0.258 ± 0.019
3,UUCACUGACACGUUCUCUGAGAGAUUAACA,0.546 ± 0.026
4,UAGUGACACACCUUCUCGGAGAGAUUAACA,0.0476 ± 0.005
5,UAGACUGUCACCUUCACUGAGAGAAUAACA,0.402 ± 0.081
6,UAGUGACAGACCUUGUCUGAGAGUUUAACA,0.0133 ± 0.0041
7,UAGUGACUCCACCUUCUCUGAGAGAUUAACA,0.415 ± 0.04
8,UAGUCUGACACCUUCUCUGAGAGAUUUUGA,0.00378 ± 0.0025
9,AUCACUGUCACCUUCUCUGAGGAUUAACA,0.186 ± 0.051
10,UAGACUGUCUCCUUCUCUGAGAGAUUAUGA,0.0484 ± 0.0098
11,AUCACUGUCACCUUCUCUGACAGAUUUACA,0.0146 ± 0.0032
12,UAGUCUGUCACGUUCUCUGAGAGAUUAUGA,0.0167 ± 0.0043
13,UAGUGACAGACCUUCUCUGAGAGGAUUAACA,0.0286 ± 0.0057
14,AUCACUGUCACCUUCUCUGAGAGAUUUAGA,0.108 ± 0.024
15,UAGACUGUCACCUACUCAGAGAGAUUAACA,0.087 ± 0.0073
16,UACACUGUCACCUAGACUGAGAGAUUUUGA,0.00547 ± 0.0048
17,UAGUGUGUCAGCUUCUCUGAGAGAUUUUGA,0.00691 ± 0.0036
18,AUCUCUGUCACCUUCUCUCAGAGAUUAACA,0.105 ± 0.0088
19,UACACUGUGACCUUCUCUGAGAGAUUUACA,0.308 ± 0.042
20,UAGUGUGAGACCUUCUCUGAGAGAUUAAGA,0.0976 ± 0.027
21,UAGUGACUCACCAACUCUGAGAGAUUAAGA,0.00473 ± 0.0031
22,UAGUGACACACCUUCUCUGAGUGUUUAACA,0.00603 ± 0.004
23,UACUCUGUCACCUUCUCUGAGAGAUUUUGA,0.0843 ± 0.017
24,UAGUGAGUCACCUUCUCUGUGAGAUUUUGA,0.00479 ± 0.0046
